The campaign covered roughly 1,900 compounds. About 40 (2%) showed an effect of 50% or more. The list shows a part of the results.
Target: human SGLT1 (hSGLT1) (human, UniProt P13866)
Assay: primary screen, percent of control activity; higher = less effect of the substance
Parameters: single well
Conditions: 50 µM
In short: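 Single-point screen at 50 µmol/L in CHO-hSGLT1 cells, with 160 µmol/L 1-NBD-glucose in glucose-free DMEM for 90 min at 37°C. Fluorescence from isopropanol extracts was calibrated, and CHO wild-type uptake was subtracted. Data are percent of uptake without compound.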

Chain of human SGLT1 (hSGLT1) (P13866 whole entry, looked up): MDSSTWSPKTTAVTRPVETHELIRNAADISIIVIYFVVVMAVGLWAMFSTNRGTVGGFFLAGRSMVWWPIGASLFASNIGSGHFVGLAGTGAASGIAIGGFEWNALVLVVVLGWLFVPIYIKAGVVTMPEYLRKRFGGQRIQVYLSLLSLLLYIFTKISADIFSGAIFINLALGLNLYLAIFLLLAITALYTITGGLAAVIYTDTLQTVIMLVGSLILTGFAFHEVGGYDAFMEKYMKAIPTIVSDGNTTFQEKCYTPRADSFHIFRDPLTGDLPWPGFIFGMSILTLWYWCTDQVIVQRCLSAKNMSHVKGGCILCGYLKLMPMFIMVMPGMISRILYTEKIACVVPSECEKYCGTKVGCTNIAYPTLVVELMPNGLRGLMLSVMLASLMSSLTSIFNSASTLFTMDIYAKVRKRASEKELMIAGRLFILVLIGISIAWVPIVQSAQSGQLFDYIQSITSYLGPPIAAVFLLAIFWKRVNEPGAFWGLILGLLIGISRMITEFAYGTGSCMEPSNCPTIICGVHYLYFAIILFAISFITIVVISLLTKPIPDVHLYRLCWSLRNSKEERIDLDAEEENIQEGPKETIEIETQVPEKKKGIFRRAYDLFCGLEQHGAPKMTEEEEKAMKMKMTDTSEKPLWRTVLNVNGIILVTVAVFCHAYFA

SMILES	NORMALIZED SGLT1 ACTIVITY (%)
COC(=O)[C@@H]1OC(=O)C2OC23[C@@]1(C)CCC1[C@@]2(C)CCC(=O)C(C)(C)C2C[C@@H](OC(C)=O)[C@]13C (stereo partly drawn)	112
CC1[C@H](C)OC(=O)CC(O)CC(O)CC(O)CCC(O)C(O)C[C@]2(O)CC(O)C(C(=O)O)C(CC(OC3O[C@H](C)[C@@H](O)[C@H](N)[C@@H]3O)/C=C/C=C/C=C/C=C/CC/C=C/C=C/[C@H](C)[C@H]1O)O2 (stereo partly drawn)	82
CCCCCCC(C)OC(=O)COc1cc(Cl)c(Cl)cc1Cl (stereo not drawn)	93
NC(=O)c1ccc[n+]([C@@H]2O[C@H](COP(=O)([O-])OP(=O)(O)OC[C@H]3O[C@@H](n4cnc5c(N)ncnc54)[C@H](OP(=O)([O-])O)[C@@H]3O)[C@@H](O)[C@H]2O)c1.[Na+]	90
CCC1(C)CC(=O)NC1=O (stereo not drawn)	94
O=C1C(O)=C(O)C(=O)C(O)=C1O	98
COC(=O)Nc1nc2ccc(S(=O)c3ccccc3)cc2[nH]1 (stereo not drawn)	125
COc1cc(C)c2c(=O)cc(-c3ccccc3)oc2c1	195
COc1ccccc1/C=C\C(=O)O	95
C[C@]12C=CC(=O)C=C1CCC1C2CC[C@]2(C)C(=O)CCC12 (stereo partly drawn)	102
CC(C)CCC[C@@H](C)[C@H]1CC[C@H]2[C@@H]3C[C@@H](O)[C@@]4(O)C[C@@H](O)CC[C@]4(C)[C@H]3CC[C@]12C	109
CC(C)(C)NC[C@H](O)COc1nsnc1N1CCOCC1.O=C(O)/C=C\C(=O)O	106
C[C@H]1CCCC(=O)CCC/C=C/c2cc(O)cc(O)c2C(=O)O1	53
CN(C)C(=O)Oc1cccc([N+](C)(C)C)c1.[Br-]	109
CC1/C(=N/O)C[C@@H]2C[C@H]1C2(C)C (stereo partly drawn)	136
CCCCC1C(=O)N(c2ccccc2)N(c2ccccc2)C1=O	112
Br.CC(Cc1ccc(O)cc1)NCC(O)c1cc(O)cc(O)c1 (stereo not drawn)	143
CC(C)c1c(O)ccc2c1CCC1C(C)(C(=O)O)CCCC21C (stereo not drawn)	234
CCCCCNC(=N)N/N=C/c1c[nH]c2ccc(OC)cc12.O=C(O)/C=C\C(=O)O	141
C[C@]12C=CC(=O)C=C1CCC1C2[C@@H](O)C[C@@]2(C)C1CC[C@]2(O)C(=O)CO (stereo partly drawn)	117
C[C@H](CS)C(=O)N1CCC[C@H]1C(=O)O	125
S=C=NCc1ccccc1	121

SMILES	NORMALIZED SGLT1 ACTIVITY (%)
CC(C)NCC(O)COc1cccc2[nH]ccc12 (stereo not drawn)	99
COC(=O)C1=C(C)NC(C)=C(C(=O)OC)C1c1ccccc1[N+](=O)[O-]	240
O=c1oc2cc(O)ccc2s1	147
C[C@@H](CO)NC(=O)C1C=C2c3cccc4[nH]cc(c34)C[C@H]2N(C)C1.O=C(O)/C=C\C(=O)O (stereo partly drawn)	105
CCCC(C)(COC(N)=O)COC(=O)NC(C)C (stereo not drawn)	117
CCC(C)[C@H]1O[C@]2(C=C[C@@H]1C)C[C@@H]1C[C@@H](C/C=C(\C)[C@@H](OC3C[C@H](OC)C(O[C@H]4C[C@H](OC)[C@@H](O)[C@H](C)O4)[C@H](C)O3)[C@@H](C)/C=C/C=C3\CO[C@@H]4[C@H](O)C(C)=C[C@@H](C(=O)O1)[C@]34O)O2 (stereo partly drawn)	124
CC(=O)O[C@H]1C[C@@H](OC(C)=O)C(C)(C)C2C[C@@H](OC(C)=O)[C@]3(C)C([C@H](OC(C)=O)C[C@@]4(C)[C@H](c5ccoc5)OC(=O)[C@H]5O[C@]543)[C@]21C (stereo partly drawn)	101
O=c1oc2ccccc2c(O)c1Cc1c(O)c2ccccc2oc1=O	288
CC[n+]1c(-c2ccccc2)c2cc(N)ccc2c2ccc(N)cc21.[Br-]	82
COc1ccc(CN(CCN(C)C)c2ncccn2)cc1.Cl	75
C[C@H]1[C@H]2CC[C@H]3[C@@H]4CC=C5C[C@@H](N(C)C)CC[C@]5(C)[C@H]4CC[C@]23CN1C	107
Cl.Cl.N=C(NCCCCCCNC(=N)NC(=N)Nc1ccc(Cl)cc1)NC(=N)Nc1ccc(Cl)cc1	25
Cc1c(O)c(C(=O)CC(C)C)c2oc3c(C(=O)CC(C)C)c(O)c(C)c(O)c3c2c1O	107
O=c1c(-c2ccccc2)coc2cc(O)cc(O)c12	167
CC[N+](C)(C)c1cccc(O)c1.[Cl-]	94
CCCC(CCC)C(=O)[O-].[Na+]	105
CCNc1nc(Cl)nc(NCC)n1	113
COC(=O)C[C@H]1C(C)(C)C(=O)[C@@H]2CC3=C(CC[C@]4(C)C3=CC(=O)O[C@H]4c3ccoc3)[C@@]1(C)C2=O	164
C=C1CC[C@H](O)C/C1=C/C=C1\CCC[C@]2(C)[C@@H]([C@H](C)/C=C/[C@H](C)C(C)C)CC[C@@H]12	143
COC(=O)C1[C@H]2C[C@H]3c4[nH]c5ccccc5c4CCN3C[C@@H]2CC[C@@H]1O.Cl (stereo partly drawn)	120
C=C1C(=O)O[C@H]2[C@H]1CC/C(C)=C/CC[C@@]1(C)O[C@@H]21	104
COc1cccc(O)c1O	97

SMILES	NORMALIZED SGLT1 ACTIVITY (%)
COc1ccc2c(c1OC)C(=O)O[C@H]2[C@H]1c2cc3c(cc2CCN1C)OCO3	111
CN(C)CCC=C1c2ccccc2CCc2ccccc21.Cl	59
CC(CCC(=O)O)[C@H]1CCC2C3C(=O)C[C@@H]4CC(=O)CC[C@]4(C)C3CC(=O)[C@@]21C (stereo partly drawn)	115
CCCCC1(COC(=O)CCC(=O)O)C(=O)N(c2ccccc2)N(c2ccccc2)C1=O	126
CCN(CC)CCNc1ccc(CO)c2sc3ccccc3c(=O)c12	184
CCOC(=O)[N-]c1c[n+](N2CCOCC2)no1	113
CC(C)CCCC(C)C1CCC2C3CC[C@H]4CC(=O)CC[C@]4(C)C3CC[C@]12C (stereo partly drawn)	90
c1ccc2[nH]c(-c3cscn3)nc2c1	210
C=C(CC)C(=O)c1ccc(OCC(=O)O)c(Cl)c1Cl	88
CO[C@]12C[C@@H](COC(=O)c3cncc(Br)c3)CN(C)[C@@H]1Cc1cn(C)c3cccc2c13	187
Nc1cc(-c2ccncc2)c[nH]c1=O	192
O=C(NC(=O)c1c(F)cccc1F)Nc1cc(Cl)c(OC(F)(F)C(F)C(F)(F)F)cc1Cl (stereo not drawn)	134
C#C[C@]1(O)CC[C@H]2[C@@H]3CCC4=Cc5oncc5C[C@]4(C)[C@H]3CC[C@@]21C	89
CC[C@@]1(O)C(=O)OCc2c1cc1n(c2=O)Cc2cc3ccccc3nc2-1	276
CC(=O)Oc1ccc2c(c1)CCC1C2CC[C@@]2(C)C1CC[C@@H]2OC(C)=O (stereo partly drawn)	139
CCOc1ccc2c(c1)C(C)=CC(C)(C)N2	92
C/C1=C/CC(C)(C)/C=C/C/C(C)=C/CC1	84
COc1cc(OC)c2c(=O)c(-c3ccccc3)c(C)oc2c1OC	201
OC[C@H]1O[C@@H](n2cnc3c(NCc4ccco4)ncnc32)[C@H](O)[C@@H]1O	142
CC(=O)Oc1cc(OC(C)=O)c2c(c1)O[C@H](c1ccc(OC(C)=O)c(OC(C)=O)c1)[C@H](OC(C)=O)C2	163
CN(C)CCC(c1ccccc1)c1ccccn1.O=C(O)/C=C\C(=O)O (stereo not drawn)	82
NNC(=O)c1ccncc1	126

SMILES	NORMALIZED SGLT1 ACTIVITY (%)
CNC(=O)Oc1cccc2c1OC(C)(C)O2	130
CC(=O)O[C@@H]1c2c(ccc3ccc(=O)oc23)OC(C)(C)[C@@H]1OC(=O)CC(C)C	51
NC1(C(=O)O)CCC1	81
CC(=O)CC1CCCCN1.Cl (stereo not drawn)	86
CN(C)c1nc(N(C)C)nc(N(C)C)n1	103
CCOC(=O)[C@H](CCc1ccccc1)N[C@@H](C)C(=O)N1Cc2ccccc2C[C@H]1C(=O)O.Cl	124
CC(=O)O[C@@H]1C[C@@]2(C)[C@H](c3ccoc3)C[C@H]3O[C@]32[C@]2(C)C(=O)C(O)=C3C(C)(C)C(=O)C=C[C@]3(C)C12 (stereo partly drawn)	104
O=C(O)CCC(=O)Nc1ccc(S(=O)(=O)Nc2nccs2)cc1	208
CC[C@@H]1/C=C/C=C/C[C@H](C)[C@@H](O)[C@](C)(O)C(=O)[C@H](C)[C@@H](O)[C@H](C)C(=O)[C@H](C)[C@@H](O)[C@H](C)/C=C/C(=O)O[C@H]2[C@@H](C)[C@@H](CC1)O[C@@]1(CC[C@@H](C)[C@@H](C[C@H](C)O)O1)[C@@H]2C	198
COc1ccc2cc3[n+](cc2c1OC)CCc1cc2c(cc1-3)OCO2.[Cl-]	112
COc1c2ccoc2nc2c(OC)c(OCC(O)C(C)(C)O)ccc12 (stereo not drawn)	168
CC[C@]12CCCN3CCc4c(n(c5ccccc45)[C@@](O)(C(=O)OC)C1)[C@@H]32	79
COC1=C(OC)C(=O)C(C/C=C(\C)CC/C=C(\C)CC/C=C(\C)CC/C=C(/C)CC/C=C(\C)CC/C=C(\C)CC/C=C(\C)CC/C=C(\C)CC/C=C(\C)CCC=C(C)C)=C(C)C1=O	140
Cc1c(NC(C)C)c(=O)n(-c2ccccc2)n1C.Cl	124
NS(=O)(=O)c1cc2c(cc1Cl)NC(C(Cl)Cl)NS2(=O)=O (stereo not drawn)	112
CCCCCCCCCN1C[C@H](O)[C@@H](O)[C@H](O)[C@H]1CO	83.2
C=C(C)C1Cc2c(ccc(C(=O)O)c2O)O1 (stereo not drawn)	92
Nc1ncnc2c1ncn2[C@H]1C[C@H](O)[C@@H](CO)O1	99
CC(=O)CCCCn1c(=O)c2c(ncn2C)n(C)c1=O	146
CCc1cc(C(N)=S)ccn1	106
CCCCC[C@H]1C(=O)O[C@H](C)[C@H](NC(=O)c2cccc(NC=O)c2O)C(=O)O[C@@H](C)[C@@H]1OC(=O)CC(C)C	220
